Variants at the background level are over-represented here.
B1: TPR 5TU (parent)
chain: GGAUCUUCUCGAUCUAACAAAAAAGACAAAUCUGCCACAAAGCUUGAGAGCAUCUUCGGAUGCAGAGGCGGCAGCCUUCGGUGGCGCGAUAGCGCCAACGUUCUCAACUAUGACACGCAAAACGCGUGCUCCGUUGAAUGGAGUUUAUCAUG

Variants of: B1
Assay: polymerase ribozyme fitness, log enrichment relative to wild type (log ratio); higher = more active; in vitro selection for triplet polymerase activity
How it was run: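 Streptavidin-bead capture of gel-excised extended constructs, followed by RT-PCR, closed a single triplicate in vitro selection round. That round began by annealing PCR-built, transcribed mutant libraries of each subunit of a heterodimeric triplet polymerase ribozyme with a biotinylated primer, the partner subunit and triplets, then incubating them frozen at −7 °C. After Illumina sequencing of inputs and outputs, genotypes needed ≥10 input reads and ≥1 read per output. Fitness is the base-2 logarithm of genotype enrichment over wild-type enrichment, using inverse-variance-weighted replicate averages.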

Point of comparison: GGAUCUUCUCGAUCUAACAAAAAAGACAAAUCUGCCACAAAGCUUGAGAGCGUCUUCGGAUGCAGAGGCGGCAGCCUUCGGUGGCGCGAUAGCGCCAACGUUCUCAAUUAUGACACGCAAAACGCGUGCUCCGUUGAAUGGAGUUUAUCAUG [A52G C108U], “polymerase ribozyme fitness (log ratio)” value -2.1. Against it:
- GGAUCUUCUCGAUCUAACAAAAAAGACAAAUCUGCCACAAAGCUUGAGAGCCUCUUCGGAUGCAGAGGCGGCAGCCUUCGGUGGCGCGAGAGCGCCAACGUUCUCAACUAUGACACGCAAAACGCGUGCUCCGUUGAAUGGAGUUUAUCAUG [A52C U90G] — lower, ≤ -4.2
- GGAUCUUCUCGAUCUAACAAAAAAGACAAAUCUGCCACAAAGCUUGAGAGCGUCUUCGGAUGCAGAGGCGGCAGCCUUCGGUGGCGCGAUAGGGCUAACGUUCCCAACUAUGACACGCAAAACGCGUGCUCCGUUGAAUGGAGUUUAUCGUG [A52G C93G C96U U104C A150G] — lower, ≤ -4.2
- GGAUCUUCUCGAUCUAACAAAAAAGACAAAUCUGCCACAAAGCUUGAGAGCGUCUUCGGGUGCAGAGGCGGCAGUCUUCGGUGGCGCUAUAACGUCAACGUUCUCAACUAUGACAUGCAAAACGCGUGCUCCGUUGAAUGGAGUUUAUCAUG [A52G A60G C75U G88U G92A C95U C116U] — lower, ≤ -4.2
- GGAUCUUCUCGAUCUAACAAAAAAGACAAAUCUGCCACAAAGCUUGAGAGCGUCUUCGGAUGCAGAGGCGGCAGCCUUGGGUGGCGCGAUAGCGCCAACGUUCUCAACUAUGACACGUAAAACGCGUGCUCCGUUGAAUGGUGUUUAUCAUG [A52G C79G C118U A142U] — lower, ≤ -4.2
- GGAUCUUCUCGAUCUAACAAAAAAGACAAAUCUGCCACAAAGCUUGAGAGCCACUUCGGAUGCAGAGGCGGCAGCCUUCGGUGGCGGGAUAGCGCCAACGUUCUCAACUAUGACACGCAAAACGCGUGCUCCGUUGACUGGAGUUUAUCAUG [A52C U53A C87G A138C] — lower, ≤ -4.2
- GGAUCUUCUCGAUCUAACAAAAAAGACAAAUCUGCCACAAAGCUUGAGAGCGUCUUCGGAUGCAGAGGCGGCAGCCUUCGGUGGCGCGAUAGCGCUAACGUUCUCAACUAUGACACGCAAAUCGCGUGCUCCGUUGAAUGGAGUUUAUCAUG [A52G C96U A122U] — higher, -0.85
- GGAUCUUCUCGAUCUAACAAAAAAGACAAAUCUGCCACAAAGCUUGAGAGCCUCUUCGGAUGCAGAGGCGGCAGCCUUCGGUGGCGCGAUAGCGCCAACGUUCUCAACGAUGACACGCAAAACGCGUGCUCCGUUGACUGGAGUUUAUCAUG [A52C U109G A138C] — lower, ≤ -4.2
- GGAUCUUCUCGAUCUAACAAAAAAGACAAAUCUGCCACAAAGCUUGAGAGCCUCUUCGGAUGCAGAGGCGGCAGCCUUCGGUGGCGCGAUAGCGCCAACGGUCUCAACUAUGACACGCAAAACGCGUGCUCCGUUGAAUGGAGUUUAUCAUG [A52C U101G] — higher, -1.56
- GGAUCUUCUCGAUCUAACAAAAAAGACAAAUCUGCCACAAAGCUUGAGAGCGUCUUAGGAUGCAGAGGCGGCAGCCUUCGGUGGCGCGAUAGCUCCAACGUUCUCAACUAUGACACUCAACACGCGUGCUGCGUUGAAUGGAGUUUAUCAUG [A52G C57A G94U G117U A121C C131G] — lower, ≤ -4.2
- GGAUCUUCUCGAUCUAACAAAAAAGACAAAUCUGCCACAAAGCUUGAGAGCCUCUUCGGAUGCAGAGGCGGCAGCCUUCGGUGACGCGAUAGCGCCAACAUUCUCAACUAUGACACGCAAAACGCGUGCUCCGUUGAAUGGAGUUUGUCAUG [A52C G84A G100A A147G] — lower, ≤ -4.2
- GGAUCUUCUCGAUCUAACAAAAAAGACAAAUCUGCCACAAAGCUUGAGAGCGUCUUCGGAUGCAGAGGCGGCAGCCUUCGGUGGCGCGAUAGCGCUAACGUUCUCAACUAUGACACGCAAAACGCGUGCUCCGUUGAAUGGAGUUUAUCAUG [A52G C96U] — higher, -1.46
- GGAUCUUCUCGAUCUAACAAAAAAGACAAAUCUGCCACAAAGCUUGAGAGCGUCUUCGGAUGCUGAGGCGGCAGCCUUCGAUGGCCCGAUAACGCCAACGUUCUCAACUAUGACACGCAAACCGCGUGCUCCGUUGAAUGGACUUUAUCAUG [A52G A64U G81A G86C G92A A122C G143C] — lower, ≤ -4.2
- GGAUCUUCUCGAUCUAACAAAAAAGACAAAUCUGCCACAAAGCUUGAGAGCCUCUUCGGAUGCAGAGGCGGCAGCCUUCGGUGGCGCUUUAGCGCCAACGUUCUCAACUAUGACACGCAAAACGCGUGCUCCGUUGAAUGGAGUUUAUCAUG [A52C G88U A89U] — lower, ≤ -4.2
- GGAUCUUCUCGAUCUAACAAAAAAGACAAAUCUGCCACAAAGCUUGAGAGCCUCUUCGGAUGCAGAGGCGGCAGCCUUCGGUGGCGCGAUAGCCCCAACGUUCUCGACUAUGACACGCAAAACGCGUGCUCCGUUGAAUGGAGUUUAUCAUG [A52C G94C A106G] — higher, -1.86
- GGAUCUUCUCGAUCUAACAAAAAAGACAAAUCUGCCACAAAGCUUGAGAGCCUCUUCGGAUGCAGAGGCGGCAGCCUUCGGUUGCGCGAUAGCGCCAACGUUCUCGACUAUGACACGCAAAACGCGUGCUCCGUUGAAUGGAGUUUAUCAUG [A52C G83U A106G] — lower, -2.56
- GGAUCUUCUCGAUCUAACAAAAAAGACAAAUCUGCCACAAAGCUUGAGAGCCUCUUCGGAUGCAGAGGCGGCAGCCUUCGGUGGCGCGAUAAAGCCAACGUUCUCAACUAUGACACGCAAAACGCGUGCUCCGUUGAAUGGAGCUUAACAUG [A52C G92A C93A U144C U148A] — lower, ≤ -4.2
- GGAUCUUCUCGAUCUAACAAAAAAGACAAAUCUGCCACAAAGCUUGAGAGCGUCUUCGGAUGCAGAGGCGGCAGCCUUCGGUGGCGGGAUAGCGCCAACGUUCUCAACUAUGACACGCAAAACGCGUGCUCCGUUGAAUGGAGUUUAUCAUG [A52G C87G] — lower, ≤ -4.2
- GGAUCUUCUCGAUCUAACAAAAAAGACAAAUCUGCCACAAAGCUUGAGAGCCUCAUCGGAUGCAGAGGCGGCAGCCUUCGGUGGCGCGAUAGCGCCAACGUUCUCAGCUAUGACACGCAAAACGCGUGCUCCGUUGAAUGGAGUUUAUCAUG [A52C U55A A107G] — lower, ≤ -4.2
